For assay [1], the target named is Catechol O-methyltransferase (Homo sapiens) (UniProt P21964). The experiment in a line: Confirmatory Screen for Target Class Profiling of Small Molecule Inhibitors of Methyltransferases (AID 1745852).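 Also: inhibitor potency for blocking SAH production.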 The settings on record: MTase-Glo luminescence, SAH detection, recombinant enzyme; measured here: COMT inhibition potency.
Assay [2] deals with Histamine N-methyltransferase (Homo sapiens) (UniProt P50135). The assay is described as above. The conditions noted are these: MTase-Glo luminescence, SAH detection, recombinant enzyme; measured here: HNMT inhibition potency.
Assay [3] deals with Nicotinamide N-methyltransferase (Homo sapiens) (UniProt P40261). Described as above. The conditions noted are these: MTase-Glo luminescence, SAH detection, recombinant enzyme; measured here: NNMT inhibition potency.
Assay [4] has as its target Phenylethanolamine N-methyltransferase (Homo sapiens) (UniProt P11086). The assay is described as above. The settings on record: MTase-Glo luminescence, SAH detection, recombinant enzyme; measured here: PNMT inhibition potency.
The nature of assay [5]: NCATS anti-infectives library activity on the primary C. elegans qHTS viability assay (AID 1745855). The settings on record: C. elegans worm area imaging, day 7; measured here: worm area, day 3. The method in brief: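 GFP read-out by 488 nm laser cytometry at day 0, 3 and 7, gated on object perimeter, area and peak intensity, scored viability of PE254-GFP-FLuc worms exposed to compound in S medium with bacterial capsules at 21 °C.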
In general terms: Quantitative high-throughput screening tests each substance at several concentrations.

The nature of assay [6]: qHTS drug screen for cell cycle checkpoint inhibitors in PARPi-resistant BRCA-mutant ovarian cancer cell lines. (AID 1963452). The conditions noted are these: PEO1/OlaR viability, CellTiter-Glo luminescence, 96 h. The method in brief: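 PEO1, PEO4 and PEO1/OlaR ovarian cancer cells, 600 per well, exposed 96 h at 37C to a dilution series. Viability read by CellTiter-Glo luminescence, normalized to DMSO and empty wells; activity summarized as Z-AUC.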

Assay [7] is described as follows: qHTS for identification of novel therapeutic agents for treatment of microphthalmiaassociated transcription factor (MiT) renal cell carcinoma (RCC) (AID 1963991). The settings on record: CellTiter-Glo, 48 h; for z-score: stronger effect = lower value. The gist of the method:
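Three TFE3-fusion RCC cell lines (UOK109, UOK124, UOK145), 500 cells/well, were exposed to the 1912-compound MIPE 4.0 library for 48 hours at 37 C. Viability was read by CellTiter-Glo luminescence, normalised to DMSO (100%) and empty wells (0%), with 11-concentration curve fits.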

[8] abbreviates: measured here: PEO1 parental viability.

Some of the results follow. Shown are side measurements of this screen, not its main read-out; they come without a call. For some assays here: The list favours compounds with an active or inconclusive main result. Potencies come from curve fits of mixed quality, noted in brackets.
Tags tell the direction and shape of the fitted curve.

Sequence of UniProt P50135 (P50135 whole entry, looked up): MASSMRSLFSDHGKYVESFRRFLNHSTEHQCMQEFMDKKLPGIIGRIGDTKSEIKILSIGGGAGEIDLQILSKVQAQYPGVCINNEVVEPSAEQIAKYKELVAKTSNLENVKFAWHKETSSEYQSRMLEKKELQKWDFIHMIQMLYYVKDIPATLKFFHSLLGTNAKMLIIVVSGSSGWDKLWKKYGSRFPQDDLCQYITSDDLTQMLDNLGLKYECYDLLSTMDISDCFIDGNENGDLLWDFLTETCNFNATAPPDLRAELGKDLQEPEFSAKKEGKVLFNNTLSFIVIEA
Sequence of UniProt P21964 (P21964 whole entry, looked up): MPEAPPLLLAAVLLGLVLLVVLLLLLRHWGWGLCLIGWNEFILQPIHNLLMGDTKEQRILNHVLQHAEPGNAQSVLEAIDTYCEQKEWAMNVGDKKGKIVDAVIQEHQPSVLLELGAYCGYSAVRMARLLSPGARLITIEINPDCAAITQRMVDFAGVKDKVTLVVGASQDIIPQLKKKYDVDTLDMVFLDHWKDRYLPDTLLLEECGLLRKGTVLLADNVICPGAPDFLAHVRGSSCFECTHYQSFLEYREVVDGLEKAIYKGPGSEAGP
Sequence of UniProt P40261 (P40261 whole entry, looked up): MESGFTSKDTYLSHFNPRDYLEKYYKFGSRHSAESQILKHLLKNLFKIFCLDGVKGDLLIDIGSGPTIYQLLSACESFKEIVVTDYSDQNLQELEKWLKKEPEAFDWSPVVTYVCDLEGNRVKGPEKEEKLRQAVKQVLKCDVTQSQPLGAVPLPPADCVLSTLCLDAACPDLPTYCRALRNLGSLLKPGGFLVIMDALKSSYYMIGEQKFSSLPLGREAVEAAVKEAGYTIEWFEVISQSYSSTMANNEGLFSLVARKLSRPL
Sequence of UniProt P11086 (P11086 whole entry, looked up): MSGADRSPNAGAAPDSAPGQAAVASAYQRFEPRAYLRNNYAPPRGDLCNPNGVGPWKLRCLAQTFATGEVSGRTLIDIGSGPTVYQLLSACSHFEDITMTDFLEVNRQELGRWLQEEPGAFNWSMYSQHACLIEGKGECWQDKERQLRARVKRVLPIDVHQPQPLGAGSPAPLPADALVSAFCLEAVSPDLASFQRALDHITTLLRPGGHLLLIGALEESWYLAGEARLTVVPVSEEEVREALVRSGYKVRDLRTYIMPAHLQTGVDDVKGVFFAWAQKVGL

Take `O=[N+]([O-])c1ccc(-[n+]2nc(-c3ccccc3)nn2-c2ccc(I)cc2)cc1`: the IC50 (as a rule, the point on the concentration scale where inhibition reaches its midpoint) in assay [1] was 21.5 µM [falling, partial curve]; in assay [2], 21.5 µM [falling, partial curve]; in assay [3], 21.5 µM [falling, partial curve]; in assay [4], 21.5 µM [falling, partial curve].

`c1ccc(-c2[nH]nc3ncc(-c4cn[nH]c4)nc23)cc1`: the IC50 in assay [1] was 27.8 µM [falling, partial curve]; in assay [2] it was 31.2 µM [falling, partial curve]; in assay [3], 31.2 µM [falling, partial curve]; in assay [4], 27.8 µM [falling, partial curve].

As to `O=C(O)c1ccc(Nc2nc3ccccc3n3cnnc23)cc1`, the IC50 in assay [1] was 21.7 µM [falling, partial curve]; in assay [2] it was 21.7 µM [falling, partial curve]; in assay [3] it was 15.3 µM [falling, partial curve]; in assay [4], 21.7 µM [falling, partial curve].

As for `O=C(Nc1ccc2ncnc(N3CCCCC3)c2c1)C1CCCCC1`, the IC50 in assay [1] is 21.5 µM [falling, partial curve]; in assay [2] it was 19.2 µM [falling, partial curve]; in assay [3], 19.2 µM [falling, partial curve]; in assay [4], 17.1 µM [falling, partial curve].

Regarding `O=C(NCCc1ccccc1)c1ccc2c(=O)[nH]c3c(C(=O)NCC4CCCO4)sc(=S)n3c2c1` (stereo not given), the IC50 is 24.1 µM [falling, partial curve] in assay [1]; 24.1 µM [falling, partial curve] in assay [2]; 24.1 µM [falling, partial curve] in assay [3]; 24.1 µM [falling, partial curve] in assay [4].

`O=C(Nc1cccc(Nc2cc(Nc3cccc(C(F)(F)F)c3)ncn2)c1)C1CC1`: the IC50 was 19.2 µM [falling, partial curve] in assay [1]; 19.2 µM [falling, partial curve] in assay [2]; 17.1 µM [falling, partial curve] in assay [3]; 19.2 µM [falling, partial curve] in assay [4].

Consider `CN(Cc1nccs1)c1ncnc2ccc(-c3ccc4c(c3)OCO4)cc12`, for which the IC50 was 21.5 µM [falling, partial curve] in assay [1]; 21.5 µM [falling, partial curve] in assay [2]; 24.1 µM [falling, partial curve] in assay [3]; 21.5 µM [falling, partial curve] in assay [4].

Consider `CC(C)(O)c1ccc2c(c1)ncn2-c1cccc(-c2ccccc2C#N)c1`, for which the IC50 in assay [1] is 24.1 µM [falling, partial curve]; in assay [2], 27.1 µM [falling, single point]; in assay [3] it was 24.1 µM [falling, partial curve]; in assay [4], 27.1 µM [falling, partial curve].

Consider `COc1ccccc1-c1[nH]nc2ncc(C(=O)N3CCN(Cc4ccccc4)CC3)nc12`, for which the IC50 in assay [1] was 31.2 µM [falling, partial curve]; in assay [2] it was 35 µM [falling, partial curve]; in assay [3], 31.2 µM [falling, partial curve]; in assay [4] it was 31.2 µM [falling, partial curve].

Regarding `COc1ccc(-c2nc3ccccc3[nH]2)cc1`, the IC50 in assay [1] was 17.1 µM [falling, partial curve]; in assay [2] it was 15.2 µM [falling, partial curve]; in assay [3] it was 15.2 µM [falling, partial curve]; in assay [4], 13.6 µM [falling, partial curve].

For the compound `Nc1ncnc2c1ncn2[C@@H]1O[C@H](C[C@@H](N)CC[C@H](N)C(=O)O)[C@@H](O)[C@H]1O`, the half-inhibitory concentration (IC50) in assay [1] is 12.2 µM [falling, partial curve]; in assay [2] it was 17.2 µM [falling, partial curve]; in assay [3] it was 4.85 µM [falling, full curve]; in assay [4], 6.11 µM [falling, full curve].

For the compound `COc1cccc(-c2cn(-c3ccc(CCN4CCC(O)CC4)cc3)c3ncnc(N)c23)c1`, the IC50 in assay [1] is 21.5 µM [falling, partial curve]; in assay [2], 19.2 µM [falling, partial curve]; in assay [3], 15.2 µM [falling, partial curve]; in assay [4] it was 21.5 µM [falling, partial curve].

With `CN(C)c1ccc(NC(=O)NS(=O)(=O)c2ccc(Cl)cc2)cc1`, the IC50 in assay [1] is 19.2 µM [falling, partial curve]; in assay [2], 21.5 µM [falling, partial curve]; in assay [3] it was 21.5 µM [falling, partial curve, poor fit]; in assay [4] it was 3.83 µM [falling, full curve].

Take `CC(C)CCNC(=O)c1ccc2c(=O)[nH]c3c(C(=O)NC4CCCC4)sc(=S)n3c2c1`: the IC50 in assay [1] was 27.1 µM [falling, partial curve]; in assay [2], 30.4 µM [falling, single point]; in assay [3], 24.1 µM [falling, partial curve]; in assay [4], 27.1 µM [falling, partial curve].

With `CC(C)CCNC(=O)c1ccc2c(=O)[nH]c3c(C(=O)NC(C)C)sc(=S)n3c2c1`, the IC50 in assay [1] was 24.1 µM [falling, partial curve]; in assay [2], 42.9 µM [falling, single point]; in assay [3], 24.1 µM [falling, single point]; in assay [4], 24.1 µM [falling, single point].

On to `CC12CCC3C1C(c1c(cc(O)c(C(=O)c4ccccc4)c1O)O2)C3(C)C` (stereo not given), for which the IC50 in assay [1] is 18.8 µM [falling, single point]; in assay [2], 21.1 µM [falling, single point]; in assay [3], 23.7 µM [falling, partial curve, poor fit]; in assay [4], 23.7 µM [falling, single point].

Regarding `COc1ccc(-c2nc3ccncc3[nH]2)cc1`, the IC50 in assay [1] is 17.5 µM [falling, partial curve]; in assay [2] it was 15.6 µM [falling, partial curve]; in assay [3] it was 13.9 µM [falling, partial curve]; in assay [4] it was 17.5 µM [falling, partial curve].

For the compound `Cc1cc(C)c(CNC(=O)c2cc(-c3cnn(C)c3C)cc3c2OCCN3C)c(=O)[nH]1`, the IC50 in assay [1] was 35 µM [falling, partial curve]; in assay [2] it was 39.3 µM [falling, partial curve]; in assay [3] it was 39.3 µM [falling, partial curve]; in assay [4] it was 31.2 µM [falling, partial curve].

In the case of `COc1ccc(OC)c(NC(=O)c2sc(=S)n3c2[nH]c(=O)c2ccc(Cl)cc23)c1`, the IC50 is 21.5 µM [falling, partial curve] in assay [1]; 21.5 µM [falling, partial curve] in assay [2]; 27.1 µM [falling, partial curve] in assay [3]; 24.1 µM [falling, partial curve] in assay [4].

Turning to `O=C(O)c1ccc2c(c1)nc(Nc1cccc(Cl)c1)c1ccncc12`, the IC50 in assay [1] was 21.5 µM [falling, partial curve]; in assay [2], 21.5 µM [falling, partial curve]; in assay [3] it was 27.1 µM [falling, partial curve]; in assay [4] it was 24.1 µM [falling, partial curve]. Moreover, the AC50 – broadly, the concentration giving half of the maximal activity seen – in assay [5] is 0.916 µM [falling, partial curve, poor fit]; in assay [6] (setting [8]) it was 6.16 µM [falling, partial curve]; in assay [6] (measured here: PEO4 viability), 3.47 µM [falling, partial curve]; in assay [7] (TFE3-RCC viability, measured here: UOK124 cell viability), 16.6 µM [falling, partial curve]; in assay [7] (TFE3-RCC viability, measured here: UOK145 cell viability), 13.2 µM [falling, partial curve]. The z-score in assay [7] (TFE3-RCC UOK109 viability, measured here: UOK109 Z-AUC) is 0.0846; in assay [7] (TFE3-RCC viability, measured here: UOK124 Z-AUC), 0.0428; in assay [7] (TFE3-RCC viability, measured here: UOK145 Z-AUC) it was -0.17.

Consider `CC(C)N(CCCNC(=O)Nc1ccc(C(C)(C)C)cc1)C[C@H]1O[C@@H](n2cc(Br)c3c(N)ncnc32)[C@H](O)[C@@H]1O`, for which the IC50 in assay [1] was 21.5 µM [falling, partial curve]; in assay [2], 19.2 µM [falling, partial curve]; in assay [3], 19.2 µM [falling, partial curve]; in assay [4], 4.82 µM [falling, full curve]. Also, the concentration at half-maximal activity (AC50) in assay [6] (setting [8]) is 21.9 µM [falling, partial curve, poor fit]; in assay [6] (measured here: PEO4 viability), 21.9 µM [falling, single point].

Turning to `Cc1nc(CN(C)c2ncnc3ccc(-c4ccc5c(c4)OCO5)cc23)cs1`, the IC50 is 17.1 µM [falling, partial curve] in assay [1]; 17.1 µM [falling, partial curve] in assay [2]; 19.2 µM [falling, partial curve] in assay [3]; 17.1 µM [falling, partial curve] in assay [4].

As for `O=C1NC(=O)C(c2c[nH]c3ccccc23)=C1c1c[nH]c2ccccc12`, the concentration for half-maximal inhibition (IC50) is 27.3 µM [falling, partial curve] in assay [1]; 27.3 µM [falling, single point] in assay [2]; 48.5 µM [falling, partial curve, poor fit] in assay [3]; 24.3 µM [falling, partial curve] in assay [4].

On to `COCc1nc2nc(-c3ccccc3)c(-c3ccc(O)c(F)c3)cc2n1C`, for which the IC50 in assay [1] was 39.3 µM [falling, single point]; in assay [2], 35 µM [falling, partial curve]; in assay [3], 31.2 µM [falling, partial curve]; in assay [4], 35 µM [falling, partial curve].

With `O=C(NCc1ccc(Cl)cc1)c1ccc2c(=O)[nH]c3c(C(=O)NC4CCCC4)sc(=S)n3c2c1`, the IC50 is 27.1 µM [falling, single point] in assay [1]; 27.1 µM [falling, single point] in assay [2]; 24.1 µM [falling, partial curve] in assay [3]; 30.4 µM [falling, partial curve] in assay [4].

Values taken from PubChem BioAssay (NCATS).
